Source: the supplement of paper PMC3334620
Whole data set: some 33,000 sequences, median “E-score (-0.5 to 0.5)” near -0.012, cut for the highest 2% near 0.27. Some of the results follow.

These sequences were tested against T1, Vhr1 (UniProt P40522) (assay: PBM E-score (8-mer binding enrichment) (E-score (-0.5 to 0.5)); higher = stronger / more preferred TF binding; most listed sequences are background and not binding sites). Settings: protein concentration: 200 nM; construct: GST-full length.
T1 sequence: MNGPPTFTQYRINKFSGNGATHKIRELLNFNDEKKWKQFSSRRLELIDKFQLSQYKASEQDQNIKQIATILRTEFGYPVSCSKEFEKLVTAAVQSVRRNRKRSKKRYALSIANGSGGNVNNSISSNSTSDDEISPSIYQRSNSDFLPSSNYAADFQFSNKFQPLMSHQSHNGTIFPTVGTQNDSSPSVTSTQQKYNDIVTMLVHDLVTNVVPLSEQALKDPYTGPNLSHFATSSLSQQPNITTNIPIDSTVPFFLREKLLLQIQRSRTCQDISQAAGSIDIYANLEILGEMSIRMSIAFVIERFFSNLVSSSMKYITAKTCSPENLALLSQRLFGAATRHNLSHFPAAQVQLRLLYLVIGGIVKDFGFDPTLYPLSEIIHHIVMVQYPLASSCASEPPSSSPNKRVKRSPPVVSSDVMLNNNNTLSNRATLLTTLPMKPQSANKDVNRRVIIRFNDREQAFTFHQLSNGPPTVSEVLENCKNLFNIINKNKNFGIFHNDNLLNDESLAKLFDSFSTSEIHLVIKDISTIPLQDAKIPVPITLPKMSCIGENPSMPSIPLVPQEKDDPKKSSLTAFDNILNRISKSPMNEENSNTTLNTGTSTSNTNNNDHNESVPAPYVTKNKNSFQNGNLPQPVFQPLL
How it was run: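 PURExpress in vitro transcription/translation supplied GST-tagged yeast transcription factors, either full-length or DNA-binding domain. Applied at about 100-200 nM to universal all-10-mer Agilent arrays double-stranded by primer extension, the bound protein was detected with fluorescent anti-GST. E-scores, modified Wilcoxon-Mann-Whitney statistics, were given by the Universal PBM Analysis Suite to ungapped eight-base words pooled with their reverse complements after masliner normalisation.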

Row | Sequence | PBM E-score
1 | ACAATCTG | -0.0468
2 | AGTATGTA | -0.033
3 | ACACCGGC | 0.0589
4 | CGACTGTA | -0.0309
5 | AAGCAGTC | 0.0873
6 | TATCCTAA | -0.158
7 | CTTCACTA | -0.0295
8 | ACGCTAGA | -0.162
9 | ACCGAGGA | -0.0417
10 | TAGTGCCA | -0.162
11 | AACCGTCA | -0.0439
12 | CTGGCGAC | 0.0818
13 | AACCTTCG | 0.00561
14 | CGTCTCTA | -0.0812
15 | ATATGCTA | 0.217
16 | GCAAATAA | -0.0475
17 | AAGTAAAG | -0.224
18 | TAGGTAGA | 0.0176
19 | ATTCCCAG | 0.00366
20 | CCTTCAAA | -0.249
21 | TTGTCAAA | -0.237
22 | GTACTCAC | 0.263
23 | GCTTCTAC | -0.164
24 | AGCAATGG | -0.00957
25 | ATGGTGAG | 0.0663

Row | Sequence | PBM E-score
26 | GACCAGTC | 0.12
27 | AGGACAGA | -0.0515
28 | CCGGTGAC | 0.16
29 | ACTAGCAC | 0.0525
30 | CTCCGATA | -0.174
31 | AGTTGTAA | -0.0353
32 | ATTTTATA | 0.0319
33 | CCTCCCAA | -0.246
34 | ACGCTGCT | -0.204
35 | GAACTAGA | -0.0357
36 | GGAGGAGA | -0.164
37 | CAAATTGC | -0.0366
38 | CTTGAATA | -0.141
39 | CCAAGTGA | -0.0332
40 | ATCGCACC | 0.00144
41 | AAGGTTCC | -0.277
42 | GGCGTACC | 0.0453
43 | ATTAGGAG | 0.152
44 | CCGATAAC | -0.00184
45 | ACAGTGAT | 0.156
46 | AATGCGGG | 0.172
47 | ATGGAAGC | -0.0207
48 | CAGACATC | 0.17
49 | GTTTTGAA | -0.0473
50 | GGCGGTAA | 0.02

Row | Sequence | PBM E-score
51 | AAACTTAG | -0.266
52 | ATCTGCCC | -0.0314
53 | TCGATACA | 0.0705
54 | CATAGATA | 0.176
55 | TTCGCGAA | 0.164
56 | CGGAAAGC | -0.21
57 | CCTAACAA | -0.175
58 | CATCGCTC | 0.0629
59 | CAGGCTGC | 0.0864
60 | GTATTAAA | -0.0027
61 | GGATCGCA | 0.105
62 | CCAGGAGA | -0.161
63 | CATGGAGA | 0.155
64 | CCTGATAA | 0.0435
65 | CCCCTAAA | -0.331
66 | TAACGGTA | -0.00831
67 | TACTTTGA | 0.107
68 | GGGTCCGA | -0.0382
69 | GCTGGGTA | 0.0614
70 | AACAGTAT | -0.0379
71 | ACTTATGG | -0.0321
72 | CCATTGAG | -0.0424
73 | AACTTCTC | -0.225
74 | CCGATTTC | -0.129
75 | CCCCGCCC | 0.258

Row | Sequence | PBM E-score
76 | ATACCAAA | 0.0187
77 | ATGCACTC | -0.0811
78 | ACAGATAG | -0.0466
79 | ATTTCGTA | 0.0112
80 | GGAGTTTA | -0.253
81 | AACGTTCC | -0.137
82 | CTTGAGAA | -0.168
83 | AAGTAAGT | -0.079
84 | AACGGCAG | 0.107
85 | ACTTATAC | 0.0273
86 | ATTGTGTC | 0.143
87 | CAATTCTC | -0.0891
88 | GATCTCGC | 0.095
89 | CTGCCGCC | -0.203
90 | GTTGCCTA | -0.162
91 | CAAGTTGA | 0.0434
92 | GACCATCA | -0.0183
93 | AAAGTTAA | -0.213
94 | TACTATGA | 0.317
95 | AGTCGGAC | -0.0678
96 | ATACCGCG | 0.211
97 | ATTTATTG | -0.113
98 | ATAGAAAG | -0.199
99 | GTTGGACA | -0.0352
100 | GAGCGCTC | -0.0158

Row | Sequence | PBM E-score
101 | AATTGCGC | -0.0479
102 | CATGGTAA | -0.0174
103 | ACGTATAC | 0.0616
104 | CTTTCCAC | -0.0934
105 | GGCTAGTA | 0.194
106 | AGTTAGGA | -0.0805
107 | ACTTCCCG | -0.112
108 | ACCCTCGT | 0.0822
109 | CGTATCGA | -0.0288
110 | CGTGGGCA | -0.219
111 | AACATTGA | 0.00112
112 | CCACTCGA | 0.0905
113 | CGTGAGAA | -0.222
114 | CGCGGGAC | 0.0875
115 | CATGGCAC | 0.105
116 | CACTTCCG | -0.104
117 | AGGAATGA | 0.116
118 | GTGCGACA | -0.0343
119 | AGTTAGTC | 0.291
120 | ACGCAAGT | -0.105
121 | AACGAGTG | -0.077
122 | TAACAGGA | -0.0644
123 | ATACTCCG | 0.21
124 | GCCGATAC | -0.161
125 | CGAAATGC | -0.0453

Row | Sequence | PBM E-score
126 | CACGCATC | 0.131
127 | GCTAGTGA | 0.2
128 | CCGGTTAG | -0.0555
129 | CGGCGCAG | 0.113
130 | ACCCTCAT | -0.12
131 | AGTACCAC | 0.0731
132 | CTGGAGTC | 0.356
133 | CTCCAAGA | 0.0375
134 | CTACCGAA | -0.0324
135 | CGCCTAAC | 0.139
136 | CAACAATA | 0.0134
137 | ACCCCCCT | -0.256
138 | TACTGTCA | 0.0937
139 | AGGATTCA | -0.0305
140 | GTCACGGA | 0.257
141 | CAGATTGG | 0.102
142 | ATATGAAC | 0.163
143 | CCAGTGAC | 0.0549
144 | ACCGGCAT | 0.0508
145 | CACAAATG | -0.0359
146 | ACTAGACG | -0.048
147 | GTACGGCA | 0.0215
148 | GCGGACCC | -0.0401
149 | CAACGGAA | -0.0217
150 | AAGAAGTA | -0.108

Row | Sequence | PBM E-score
151 | AAGATACA | 0.0496
152 | ATATGGGG | 0.141
153 | AGAGAGCG | -0.237
154 | CACCAAGC | 0.0401
155 | ATGGGGGC | -0.242
156 | CAGTCCCC | -0.122
157 | GGTCTGTA | 0.191
158 | AAAGGCGC | -0.0831
159 | TCAAGTCA | 0.111
160 | AACCAGGC | 0.0532
161 | TCGTGAGA | -0.104
162 | CTCGCACC | 0.158
163 | ACGTTTTC | -0.0937
164 | GTCTGAAC | 0.0334
165 | AAGAATTC | -0.155
166 | AAGGCGAA | -0.22
167 | ATTAAAAA | 0.0365
168 | AGGCAACC | 0.016
169 | GTCCGGCA | 0.0604
170 | CAACGCAA | 0.00391
171 | GGCGAACA | -0.0374
172 | ACATGGGG | 0.0107
173 | CCCGGCGG | 0.182
174 | CGTCGTCC | -0.143
175 | GCTAACAC | 0.175

Row | Sequence | PBM E-score
176 | AAATGAGC | -0.154
177 | ATATCCAC | 0.142
178 | CGTACCTC | -0.0644
179 | ATTCGGCG | -0.00502
180 | AGGCGTAT | 0.189
181 | GGGTATGA | 0.243
182 | CCAAAAGA | -0.201
183 | AGGCGAGC | -0.1
184 | CACCGACG | -0.012
185 | GTTAGCAA | 0.0562
186 | CCCATAAG | 0.03
187 | AGCCTCCT | -0.145
188 | ACCCTAGG | -0.098
189 | AATGGCTA | 0.091
190 | TGGACCAA | -0.132
191 | ATAGACAC | 0.182
192 | CCAACCGG | -0.0705
193 | AGTTCCTC | -0.258
194 | AAATCAGC | 0.121
195 | GAACAATC | -0.0437
196 | CATGCAGG | 0.0608
197 | CTTCGCCC | -0.136
198 | AGTGATGC | 0.0449
199 | GTTGAATA | 0.0699
200 | AGATACAC | 0.0945

Row | Sequence | PBM E-score
201 | ACCGGGCT | -0.171
202 | GCCGATCA | -0.00422
203 | GATTCGAA | 0.195
204 | ACTAATTA | 0.211
205 | CACCATCC | -0.00126
206 | CATCACAC | 0.269
207 | AGATTGCT | -0.0342
208 | CTTGACAA | -0.0176
209 | GAGGCGAA | -0.15
210 | CGAGGGTC | -0.149
211 | ATGTGGGA | -0.0537
212 | GCTGTACA | -0.0316
213 | AATTTGCG | 0.0626
214 | GAACATTC | -0.0635
215 | CACTGGAA | 0.0326
216 | GACAAGCA | -0.143
217 | ATTCTTTC | -0.107
218 | GAGCGAGA | 0.111
219 | AAGCTCGT | -0.0771
